Reference: paper PMC12040169 (PLOS Biology, 2025)
Some of the results follow.

Test system: T1, C. trachomatis L2/434/Bu expressing GFP (CTL2-GFP)
T1 construct: L2/434/Bu GFP intracellular growth in HeLa cells
Set-up: species or system HeLa; C. trachomatis total inclusion area by high-content imaging, normalised to DMSO
Settings: total inclusion area; 28.5 h, 10 µM; inhibitor
Outline: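 After bulk GFP and resorufin fluorescence reads, cells were fixed, stained with Hoechst and imaged by high-content microscopy. Inclusion area and number (GFP) stood in for chlamydial growth, nuclei count (Hoechst) for host cell viability. MICs were derived as for the bulk readout.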

Row | SMILES | % of control remaining
1 | NC(=O)c1ccc(NC(=O)c2cncc(-c3ccc(C(=O)N4CCOCC4)cc3)c2)cc1 [CBK160214] | 86.7791
2 | CC1(C)C(C(=O)O)C1C(=O)NCCc1ccc(O)cc1 (centres unmarked) [CBK286832] | 118.34
3 | CCc1nc2ccc(C(=O)NCCN3CCOCC3)cn2c1N(C=O)Cc1ccc(OC)cc1 [CBK146625] | 92.1813
4 | COc1ccccc1NC(=O)C1=C(C)Nc2nnnn2C1c1ccc(OC)c([N+](=O)[O-])c1 (centres unmarked) [CBK293954] | 113.541
5 | O=C(NNc1ccc([N+](=O)[O-])cc1)c1cccs1 [CBK261709] | 102.975
6 | Cc1cc(C)c2c(N)c(C(=O)Nc3ccc(C(=O)O)cc3)sc2n1 [CBK300515] | 88.5824
7 | COCC(=O)N1CC[C@@H]2[C@H]1C(=O)N(c1ccc(OC)cc1)C(=O)N2Cc1ccccc1 [CBK289280] | 93.0603
8 | COc1ccc(NCC(=O)N/N=C(\C)c2ccccc2O)cc1 [CBK263887] | 93.892
9 | CCCCN(CC(N)=O)C(=O)c1sc(COc2ccc(Cl)cc2)nc1C [CBK304539] | 9.872
10 | O=C(O)C1CCN(C(=O)CCC2CCCCC2)CC1 [CBK286804] | 111.311
11 | O=C(NC1CC1)c1cnc2ccc(F)cc2c1O [CBK307629] | 81.04
12 | OCCOc1cccc(OCCOc2nccnc2N2CCNCC2)c1 [CBK014339G] | 103.583
13 | COc1ccc(CCN2C(=O)CC(N3CCN(c4ccccc4)CC3)C2=O)cc1OC (centres unmarked) [CBK262354] | 92.8978
14 | COc1cccc2sc(Nc3nnc(-c4cccs4)o3)nc12 [CBK287473] | 62.6468
15 | Cn1c(SCC(=O)Nc2ccc(N3CCOCC3)c(Cl)c2)nnc1-c1ccc(N)cc1 [CBK265777] | 93.6041
16 | COc1ccc2[nH]c3c(c2c1)CCN(C(=O)CNCC(=O)O)C31CCN(CCOc2ccccc2)C1 (centres unmarked) [CBK082782T] | 105.531
17 | COc1ccc(Sc2cc3n(c(=O)n2)CCc2cc(OC)c(OC)cc2-3)cc1 [CBK291186] | 117.507
18 | COCC1CCCN(S(=O)(=O)c2cnc3ccsc3c2)C1 (centres unmarked) [CBK306397] | 25.366
19 | N#Cc1ccc(NC(=O)NCC2(N3CCOCC3)CCSC2)cc1 (centres unmarked) [CBK304546] | 60.1696
20 | Fc1ccccc1-c1nc2cnccn2c1NCc1ccco1 [CBK283681] | 71.2177
21 | O=C(Oc1ccc(/C=N/Nc2nc(N3CCOCC3)nc(N3CCOCC3)n2)cc1)c1ccccc1 [CBK262064] | 100.36
22 | O=c1[nH]c2ncc(-c3cccc(Br)c3)nc2n1Cc1ccccn1 [CBK065020] | 81.9945
23 | CSCCC(=O)N1CCC2(CCN(C(=O)Cc3c[nH]c4ccccc34)C2)C1 (centres unmarked) [CBK131442] | 71.828
24 | COc1cc(C(=O)CCN2CCCCC2)cc(OC)c1OC [CBK015639C] | 33.0218
25 | CC(=O)N1CCC[C@H]2NC(=O)CNC(=O)C3(C/C=C/C[C@H]21)CCN(CC(C)C)CC3 [CBK292088] | 121.406
26 | CC(=O)Nc1ccc(CNC(=O)c2ccoc2C)cc1 [CBK305010] | 78.0262
27 | CCOc1ccc(S(=O)(=O)N2CCCN(CC(C)C)CC2)c2cccnc12 [CBK062758] | 88.2162

Row | SMILES | % of control remaining
28 | COc1cccc(C(=O)NCCC(=O)N2CCC3(CC2)CNC(=O)O3)c1 [CBK306803] | 50.9525
29 | CC(=O)Nc1cccc(-c2cncc(NCc3cccc(Cl)c3)n2)c1 [CBK065236] | 98.9788
30 | CN(C)C(=O)c1cccc(-c2nccnc2NCCO)c1 [CBK036582] | 91.1626
31 | CC1(O)CCCN(C(=O)c2c[nH]nc2-c2cc3ccccc3o2)C1 (centres unmarked) [CBK305555] | 62.9553
32 | Cc1cc(NS(=O)(=O)N2CCCCC2)no1 [CBK269947] | 47.5199
33 | COC(=O)c1cn([C@H]2CO[C@H]3[C@@H]2OC[C@@H]3NC(=O)Nc2ccc(OC)cc2)nn1 [CBK289500] | 99.4864
34 | Cc1cn(CC(=O)N2CCC3(CCN(C(=O)Cc4c[nH]c5ccccc45)C3)C2)c(=O)[nH]c1=O (centres unmarked) [CBK131445] | 88.08
35 | Cc1nc(C)n(CC2CCCN(Cc3cc(=O)n4ccccc4n3)C2)n1 (centres unmarked) [CBK304135] | 67.0777
36 | COCCn1nc(C(=O)N2CCCc3ccccc32)ccc1=O [CBK305590] | 46.0018
37 | CCNC(=O)CNc1cc(C#N)ccc1C(F)(F)F [CBK306432] | 62.8082
38 | COCCc1noc(CC2CCN(c3ccc(Cl)c(C#N)n3)CC2)n1 [CBK304177] | 58.8461
39 | O=C1CC[C@@H](NCc2cccs2)[C@H](c2cc(F)cc(F)c2)N1 [CBK283129] | 0.8582
40 | COc1ccc2c(c1)CCC1CN(C)N=C21 (centres unmarked) [CBK010890] | 74.7637
41 | O=C1CSC(=O)N1CNc1ccc(Br)cc1 [CBK261819] | 88.1621
42 | COc1cc(-c2cc(N3CCN(Cc4cccnc4)CC3)n3nccc3n2)cc(OC)c1OC [CBK037063] | 129.731
43 | Cc1cc(N(C)C)nc(SCc2n[nH]c(=S)o2)n1 [CBK006887] | 61.6816
44 | Cc1cn2c3c(=O)n(CCN4CCOCC4)c(=O)n(C)c3nc2n1CC1CCCO1 (centres unmarked) [CBK269985] | 95.2206
45 | Cc1[nH]c2ccccc2c1C(=O)CSc1nnc(Cc2cccs2)n1C [CBK268663] | 68.4615
46 | COc1ccc(C(=O)CSc2nnc(-c3ccccc3)[nH]2)cc1[N+](=O)[O-] [CBK263299] | 66.1259
47 | Cc1nc2ccccc2n1CC(=O)N(Cc1cccnc1)C1CC1 [CBK305248] | 51.8493
48 | CC(=O)N1CCN([C@H]2[C@@H]3OC[C@@H](O3)[C@@H](NCC3CCCCC3)[C@@H]2O)CC1 [CBK288809] | 99.9035
49 | CCn1ncc(S(=O)(=O)N2CCCC(c3ccccc3)C2)c1C (centres unmarked) [CBK282760] | 112.937
50 | Cc1nc2c(C(=O)NCC(F)(F)F)cnn2c(C)c1Cc1ccccc1 [CBK162208] | 82.1997
51 | O=S(=O)(CC(F)(F)F)Nc1cccc2cc[nH]c12 [CBK153585] | 108.039
52 | CCOC(=O)C(NC(=O)c1cn(C)cn1)c1cccc(C)c1C (centres unmarked) [CBK304098] | 61.907
53 | CC(O)c1cc2n(n1)CCN(C(=O)c1csc(Cc3ccccc3)n1)C2 (centres unmarked) [CBK307437] | 104.618
54 | CC(Oc1ccccc1)C(=O)N1CCN(C/C=C/c2ccccc2)CC1 (centres unmarked) [CBK269050] | 96.4852

Row | SMILES | % of control remaining
55 | Cn1nc(-c2ccc(S(=O)(=O)Nc3nc(-c4cccnc4)cs3)s2)cc1C(F)(F)F [CBK067270] | 101.923
56 | CCc1cc(CNS(=O)(=O)c2ccc(C)s2)on1 [CBK283066] | 101.996
57 | CCc1nnc2sc(-c3ccccc3Br)nn12 [CBK269533] | 61.4265
58 | O=C(NCc1nc2ccccc2[nH]1)c1cc(Br)cnc1NCCOc1ccccc1 [CBK076220] | 97.7417
59 | CCCC(=O)N1CCCCC1c1nn(C)cc1-c1onc(C)c1C (centres unmarked) [CBK283409] | 106.664
60 | CCOC(=O)c1[nH]c2ccccc2c1NC(=O)c1c(F)ccc(Cl)c1F [CBK160141] | 97.3651
61 | O=C(c1cc(F)c(F)cc1F)N1CCC2(CCCN(CCCn3c(=O)[nH]c4ccccc43)C2)C1 (centres unmarked) [CBK132004] | 91.0251
62 | Brc1cccc(/C=N/c2ccc3nc(-c4ccccc4)[nH]c3c2)c1 [CBK261143] | 89.7007
63 | COc1ccc(-n2c(SCC(N)=O)nc3sc4c(c3c2=O)CC(C)(C)OC4)cc1 [CBK263232] | 91.6911
64 | CSc1ccc(/C=C(\C#N)c2nn(-c3ccccc3)c(N)c2C#N)cc1 [CBK262339] | 78.7745
65 | Cn1cnc2cc(-c3nnn[nH]3)ccc21 [CBK306265] | 41.7689
66 | COc1ccc(N(CC(O)CN2CCOCC2)S(=O)(=O)c2ccccc2)cc1 (centres unmarked) [CBK263589] | 89.5383
67 | Cc1ccc(CCC(=O)N2CCCC2c2nc3ccccc3[nH]2)o1 (centres unmarked) [CBK284012] | 87.8205
68 | Nc1ccc(-c2ccccc2)c2ccccc12 [CBK084312] | 84.0063
69 | Cc1ccc(S(=O)(=O)NCCc2ccccn2)s1 [CBK269223] | 79.5127
70 | COc1nccnc1N1CCN(CCCn2c(=O)[nH]c3ccccc32)CC1 [CBK084226] | 103.519
71 | CC1CCCCC1NC(=O)CSc1cccc2cccnc12 (centres unmarked) [CBK058143] | 70.7906
72 | Cc1ccc(-c2nc3ccc(C)cc3c(C(=O)OCC(=O)c3cccc([N+](=O)[O-])c3)c2C)cc1 [CBK264436] | 102.239
73 | COc1cc(CN2CCNCC2)c2ccn(S(=O)(=O)c3ccccc3Cl)c2c1 [CBK144483T] | 56.4618
74 | COc1ccc(C(=O)N2CCC3(CC2)NC(=O)c2cc(C)ccc2O3)cc1C [CBK166277] | 115.926
75 | CC(C)C1OC(N2CCOCC2)=NC1=O (centres unmarked) [CBK070384] | 102.244
76 | O=C(c1cnccc1C(F)(F)F)N1Cc2ccccc2C1 [CBK200323] | 100.547
77 | O=C(Nc1nc(-c2cccnc2)cs1)c1ccccc1 [CBK287569] | 132.383
78 | CC(C)(C)c1ccc(C(=O)N2CCCCC2CO)cc1 (centres unmarked) [CBK073951] | 73.0532
79 | CS(=O)(=O)Nc1cccc2cc[nH]c12 [CBK159509] | 96.219
80 | Cn1cncc1CN(CCCn1ccnc1)Cc1ccccc1Cl [CBK283041] | 109.825
